Over roughly 33,000 sequences, “E-score (-0.5 to 0.5)” has its median near -0.036; the highest 2% begin near 0.37. This is one part of the list.
Target: T1, Yer064c (UniProt P40041)
T1 sequence: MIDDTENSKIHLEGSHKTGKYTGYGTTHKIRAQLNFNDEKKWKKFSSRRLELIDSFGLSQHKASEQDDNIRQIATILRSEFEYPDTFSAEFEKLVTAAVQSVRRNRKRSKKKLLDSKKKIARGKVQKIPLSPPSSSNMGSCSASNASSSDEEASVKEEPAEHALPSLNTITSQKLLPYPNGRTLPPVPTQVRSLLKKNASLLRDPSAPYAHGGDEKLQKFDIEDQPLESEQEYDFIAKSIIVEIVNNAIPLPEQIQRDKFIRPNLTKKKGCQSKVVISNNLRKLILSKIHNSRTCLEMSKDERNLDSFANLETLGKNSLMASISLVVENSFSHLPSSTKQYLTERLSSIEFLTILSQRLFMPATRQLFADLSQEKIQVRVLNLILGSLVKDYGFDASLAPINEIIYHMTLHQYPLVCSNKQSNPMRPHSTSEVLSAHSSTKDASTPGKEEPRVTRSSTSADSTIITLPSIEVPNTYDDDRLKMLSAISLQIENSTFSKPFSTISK
Assay: PBM E-score (8-mer binding enrichment) (E-score (-0.5 to 0.5)); higher = stronger / more preferred TF binding; most listed sequences are background and not binding sites
Settings: protein concentration: 200 nM; construct: GST-full length
Summary of the method: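 Universal all-10-mer Agilent arrays, double-stranded by primer extension on fresh or once-stripped slides, were probed with about 100-200 nM GST-tagged yeast transcription factors made by PURExpress. Fluorescent anti-GST detected bound protein, and masliner normalised the scans. E-scores from the Universal PBM Analysis Suite were given to each ungapped eight-base word pooled with its reverse complement.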

Sequence | PBM E-score
CGTAAGCA | -0.394
AGATAAAC | -0.00183
CAGTCCAG | 0.0165
CGGGCCAG | -0.188
CTTGGGGC | -0.17
AAGACATG | -0.0639
CAGCGCAA | -0.0584
GGCCCAAA | -0.283
ACTGGACC | -0.00642
ATCATGAA | 0.266
GAATGTGC | -0.135
AAAGTCAG | 0.323
CTTACGAC | 0.0574
CGCATTAG | 0.0905
AAAACAAG | -0.00591
CGTGCGAG | 0.00932
CAAACTGC | 0.0135
GCCCCTAA | -0.237
AGCACGTA | -0.21
CAGTGTGG | -0.225
GATACGCC | -0.269
ACGCGTAC | -0.0595
AAGCGCTA | -0.0894
AATTAACT | 0.0949
AAGCGTAT | -0.234

Sequence | PBM E-score
CTCTACGC | 0.0654
CGCGGGCA | -0.0282
CCTCGCCG | -0.246
CAGCCTAC | -0.0538
ACGGGCGC | -0.354
GCAATACA | 0.0509
CAAGATGC | 0.0265
ATATGCTG | -0.149
CCCCCATA | -0.323
GCCCGTTA | -0.306
ACATCGCA | -0.203
CATCAGGC | -0.088
GCTTCGTA | -0.128
CAAGTATC | 0.0186
ATAAAATC | 0.191
ACGAGGTG | -0.116
AGTCACTA | 0.469
TCACATAA | 0.262
ACAATGTA | -0.11
ATCGTTAC | -0.0622
GCCCGAGC | -0.0349
GAGAGTAA | 0.0863
ACCACGCT | -0.00689
ATAGGTTG | -0.00166
AACACACG | 0.0301

Sequence | PBM E-score
AACGTTGA | 0.0558
TATGTTCA | -0.0485
AGGCTGCC | -0.254
CATACACC | 0.0215
TGCACCAA | -0.222
CAAGGGTA | -0.00639
ATTGCCTC | -0.139
CGATTGTA | 0.023
CGGGCGTC | -0.148
CTCGATTA | 0.186
AGCTAAAT | 0.00761
ATATGGCC | -0.256
GAAAACTA | -0.133
CGGAGAGC | -0.107
ACGTGGCT | 0.108
GGAAACAC | -0.0623
AGAGTTGC | -0.23
GCAAGGCA | -0.0178
TTGCTAAA | -0.207
GTCCGCCA | -0.00412
AATGCTTG | -0.18
GCAGATGC | -0.257
TCGTTGCA | 0.0105
GGCCACAC | -0.15
CACAGGCG | 0.00757

Sequence | PBM E-score
AAGCCAAT | 0.0986
TAACAAAA | 0.104
ACATTGTA | -0.0166
GCCGCAGA | -0.173
CATTTCAG | 0.012
GCTCGCCA | -0.173
ACTGGTAA | 0.0839
GCTCCCAA | -0.015
AGCAGTTG | -0.0829
AAACGTGA | 0.177
CAACCTGC | -0.127
ACTACCGC | 0.224
ACCGCGGC | -0.185
CCCTTCGG | -0.233
AAGGCTCG | -0.292
TGCCTCAA | -0.186
AGACTCCC | 0.32
CACTCCAC | 0.0622
AGACTCCT | 0.337
CGCCGGCC | -0.279
ACGCTTCG | -0.111
ATCTAGGC | -0.26
TCACGAAA | 0.087
CGCTTATA | -0.0592
ACTTTCTG | 0.208

Sequence | PBM E-score
CGACGAAC | -0.14
CGTCTTTC | -0.108
AGATGCCC | -0.114
CTGTGTCA | -0.0661
AAGCAAAG | -0.218
GCAGTAGA | -0.132
CGCGATCA | 0.0941
CCTATTAC | -0.2
AATCCAAC | -0.0272
ACGTTTCT | -0.246
GCGAATGA | 0.159
CTCTCCAC | -0.0601
AGGTGGTA | -0.0819
ACGACCCT | -0.251
CACCTCTG | -0.0783
ATTTGGGC | -0.168
GCCGAGGC | -0.156
GGTTAAAC | 0.211
CGTAGTTC | -0.226
CTTAAGGC | -0.16
ATCGCTTC | 0.0447
GCAAACCA | -0.0683
CGAGCACG | -0.16
AGCGAGAT | -0.022
ACCCCGGT | -0.122

Sequence | PBM E-score
ATCCTAGG | -0.208
CCTACAGA | -0.167
AATGGGGT | 0.0509
CTGGAGCC | -0.0587
CAGATCTC | 0.0969
AGGCTCCC | -0.128
ATTTAGGC | -0.117
ACCAAAAA | 0.186
AACCAAAC | -0.128
AGCACACC | -0.313
GAGTGAAA | 0.0483
GACGTCTC | -0.196
ATCGTGCC | -0.0553
ATCTAGGG | 0.0526
TCCAACCA | -0.132
CTGAGCAA | 0.0639
CCTTGCAC | -0.156
ATTGCCAC | -0.0273
AGCGATTA | 0.234
GAGCGTAC | -0.0764
GAACGTTC | -0.0614
AGCCGAAG | -0.203
CCGTGGCC | -0.352
ATCCATGA | 0.216
CAGGACCA | -0.238

Sequence | PBM E-score
CTGAAAAG | -0.134
ATTATCCC | 0.013
ATGCGCAA | -0.00074
ACCAGCTA | -0.127
ACTGCCCA | -0.0656
CGTGAAAG | -0.0317
CCATAGGG | -0.112
CTAAGTGC | -0.0386
CGTCATTC | -0.0565
TGCAAGCA | -0.205
GTCTGCGA | -0.036
AGATGATC | 0.186
AGTCGTCG | 0.375
CATGCCTC | 0.0739
CATGCTCA | 0.132
AGCCTTCG | 0.0228
CTAGCGGC | -0.241
CAGGCAGA | -0.00699
GTAGCTAA | -0.173
AGAGGGTG | -0.0641
AGTAGGCC | -0.203
AACTGGTC | -0.131

From the supplement of paper PMC3334620
